Experiment [1] addresses Flag-TC2N (Tandem C2 domains, nuclear), full-length (UniProt Q8N9U0). In words: co-IP; extracts of lung cancer cells, IP with anti-Flag antibody and protein A/G agarose beads, 16 h at 4 °C, Western blot with the indicated antibodies; normal IgG as negative control.
Experiment [2] concerns the target dual specificity protein phosphatase 3 (DUSP3), endogenous in human lung cancer cells (human (endogenous in A549 and H522 lung cancer cells)) (UniProt P51452). In words: co-IP; extracts of stable lung cancer cell lines (Flag-NC, Flag-TC2N full-length or truncations; TC2N overexpression), IP with anti-DUSP3 antibody and protein A/G agarose beads, 16 h at 4 °C, Western blot with the indicated or Flag antibodies; normal IgG as negative control. On the technique in general: Immunoblotting shows a protein as a band on a membrane.

Chains of the proteins cited; added tags and fusions are not shown.
UniProt Q8N9U0: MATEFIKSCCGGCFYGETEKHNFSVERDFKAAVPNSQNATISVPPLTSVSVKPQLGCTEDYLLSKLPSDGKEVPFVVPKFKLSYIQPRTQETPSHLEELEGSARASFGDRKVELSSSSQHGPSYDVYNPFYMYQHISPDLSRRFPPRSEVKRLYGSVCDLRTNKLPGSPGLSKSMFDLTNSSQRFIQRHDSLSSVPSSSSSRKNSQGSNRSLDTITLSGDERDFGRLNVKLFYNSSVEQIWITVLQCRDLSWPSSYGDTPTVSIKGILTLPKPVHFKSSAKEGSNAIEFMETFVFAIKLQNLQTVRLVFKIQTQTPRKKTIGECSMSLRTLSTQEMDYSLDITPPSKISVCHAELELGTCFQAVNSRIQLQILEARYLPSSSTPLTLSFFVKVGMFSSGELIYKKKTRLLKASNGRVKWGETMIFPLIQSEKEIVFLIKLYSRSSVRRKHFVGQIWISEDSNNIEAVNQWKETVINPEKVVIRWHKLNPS
UniProt P51452: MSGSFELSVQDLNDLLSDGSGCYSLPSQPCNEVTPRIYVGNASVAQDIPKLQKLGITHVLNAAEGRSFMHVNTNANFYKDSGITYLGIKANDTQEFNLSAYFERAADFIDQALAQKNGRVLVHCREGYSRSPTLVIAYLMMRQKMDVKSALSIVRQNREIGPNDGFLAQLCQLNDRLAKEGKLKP
UniProt Q9D7X3: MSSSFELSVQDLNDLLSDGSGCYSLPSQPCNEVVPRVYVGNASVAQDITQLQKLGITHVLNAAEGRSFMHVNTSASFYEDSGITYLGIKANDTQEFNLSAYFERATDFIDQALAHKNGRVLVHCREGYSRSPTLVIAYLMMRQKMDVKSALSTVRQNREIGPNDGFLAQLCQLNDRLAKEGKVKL
UniProt Q05397: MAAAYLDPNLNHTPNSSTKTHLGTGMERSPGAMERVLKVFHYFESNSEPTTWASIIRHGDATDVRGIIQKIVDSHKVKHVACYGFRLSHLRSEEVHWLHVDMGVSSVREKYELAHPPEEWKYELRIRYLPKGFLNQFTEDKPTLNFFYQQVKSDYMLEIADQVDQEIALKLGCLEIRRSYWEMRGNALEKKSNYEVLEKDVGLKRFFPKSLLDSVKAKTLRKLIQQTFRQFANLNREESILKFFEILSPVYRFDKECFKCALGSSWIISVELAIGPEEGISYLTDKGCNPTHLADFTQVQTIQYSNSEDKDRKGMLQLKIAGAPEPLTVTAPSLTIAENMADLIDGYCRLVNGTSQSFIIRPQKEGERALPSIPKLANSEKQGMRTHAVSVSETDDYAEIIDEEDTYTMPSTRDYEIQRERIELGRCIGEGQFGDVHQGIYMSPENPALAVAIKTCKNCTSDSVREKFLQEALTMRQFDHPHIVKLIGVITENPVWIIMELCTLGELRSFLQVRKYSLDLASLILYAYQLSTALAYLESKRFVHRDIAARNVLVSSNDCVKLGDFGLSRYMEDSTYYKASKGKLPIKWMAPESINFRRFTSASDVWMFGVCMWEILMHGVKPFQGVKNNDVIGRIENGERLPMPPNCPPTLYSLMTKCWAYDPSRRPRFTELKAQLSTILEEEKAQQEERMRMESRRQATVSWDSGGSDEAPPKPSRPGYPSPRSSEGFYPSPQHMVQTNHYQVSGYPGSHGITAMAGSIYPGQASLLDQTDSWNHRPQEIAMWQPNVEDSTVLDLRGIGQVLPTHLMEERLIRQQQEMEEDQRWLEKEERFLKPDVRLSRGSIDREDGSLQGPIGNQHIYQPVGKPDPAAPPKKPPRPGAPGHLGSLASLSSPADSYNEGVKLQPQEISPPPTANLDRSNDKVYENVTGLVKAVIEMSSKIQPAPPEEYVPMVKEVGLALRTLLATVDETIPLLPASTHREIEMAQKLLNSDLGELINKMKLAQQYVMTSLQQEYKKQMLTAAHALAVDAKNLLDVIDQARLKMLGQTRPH
UniProt P28482: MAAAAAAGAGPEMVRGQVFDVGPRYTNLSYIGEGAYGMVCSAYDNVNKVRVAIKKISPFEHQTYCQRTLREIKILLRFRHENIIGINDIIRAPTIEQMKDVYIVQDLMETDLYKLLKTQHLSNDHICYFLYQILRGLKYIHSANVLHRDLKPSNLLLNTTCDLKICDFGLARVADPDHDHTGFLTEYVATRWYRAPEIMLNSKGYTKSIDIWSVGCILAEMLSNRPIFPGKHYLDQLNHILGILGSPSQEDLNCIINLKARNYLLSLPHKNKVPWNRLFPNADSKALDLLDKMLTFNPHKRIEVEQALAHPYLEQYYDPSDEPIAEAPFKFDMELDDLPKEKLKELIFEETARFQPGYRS
UniProt P34152: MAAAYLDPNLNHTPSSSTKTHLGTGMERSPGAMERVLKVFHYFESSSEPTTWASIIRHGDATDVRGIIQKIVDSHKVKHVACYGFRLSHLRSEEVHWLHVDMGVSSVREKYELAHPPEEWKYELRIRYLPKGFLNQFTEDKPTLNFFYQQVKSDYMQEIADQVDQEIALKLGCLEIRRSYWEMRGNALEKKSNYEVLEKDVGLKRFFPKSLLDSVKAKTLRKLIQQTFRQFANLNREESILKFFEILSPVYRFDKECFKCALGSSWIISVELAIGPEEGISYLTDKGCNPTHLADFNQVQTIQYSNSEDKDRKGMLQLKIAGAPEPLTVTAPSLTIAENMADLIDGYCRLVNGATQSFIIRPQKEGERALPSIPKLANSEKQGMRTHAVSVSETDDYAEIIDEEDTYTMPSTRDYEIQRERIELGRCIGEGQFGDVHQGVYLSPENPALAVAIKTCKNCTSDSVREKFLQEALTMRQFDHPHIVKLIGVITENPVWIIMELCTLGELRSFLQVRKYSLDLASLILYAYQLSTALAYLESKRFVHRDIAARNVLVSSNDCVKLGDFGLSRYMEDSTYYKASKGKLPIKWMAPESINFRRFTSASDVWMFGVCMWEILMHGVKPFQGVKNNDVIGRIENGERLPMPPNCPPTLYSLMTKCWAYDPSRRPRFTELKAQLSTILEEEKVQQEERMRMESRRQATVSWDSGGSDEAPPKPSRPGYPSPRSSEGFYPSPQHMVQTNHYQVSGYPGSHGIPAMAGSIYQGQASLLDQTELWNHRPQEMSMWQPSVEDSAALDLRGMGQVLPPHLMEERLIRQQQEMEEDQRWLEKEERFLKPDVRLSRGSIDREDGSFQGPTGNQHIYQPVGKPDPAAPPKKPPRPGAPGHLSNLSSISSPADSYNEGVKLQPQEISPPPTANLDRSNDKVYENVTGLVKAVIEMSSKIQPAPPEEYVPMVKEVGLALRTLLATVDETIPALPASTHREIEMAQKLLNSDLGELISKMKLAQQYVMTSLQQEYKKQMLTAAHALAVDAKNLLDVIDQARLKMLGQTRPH
UniProt Q63844: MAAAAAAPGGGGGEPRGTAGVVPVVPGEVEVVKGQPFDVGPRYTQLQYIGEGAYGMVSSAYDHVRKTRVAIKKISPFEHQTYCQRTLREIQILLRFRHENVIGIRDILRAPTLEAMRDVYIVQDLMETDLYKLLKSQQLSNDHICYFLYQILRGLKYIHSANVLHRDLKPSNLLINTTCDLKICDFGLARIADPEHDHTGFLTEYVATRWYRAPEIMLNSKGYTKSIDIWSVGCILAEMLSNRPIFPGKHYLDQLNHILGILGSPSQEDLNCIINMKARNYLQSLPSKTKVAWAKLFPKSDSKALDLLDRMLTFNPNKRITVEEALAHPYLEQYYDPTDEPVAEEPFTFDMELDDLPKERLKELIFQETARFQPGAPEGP
UniProt P40763: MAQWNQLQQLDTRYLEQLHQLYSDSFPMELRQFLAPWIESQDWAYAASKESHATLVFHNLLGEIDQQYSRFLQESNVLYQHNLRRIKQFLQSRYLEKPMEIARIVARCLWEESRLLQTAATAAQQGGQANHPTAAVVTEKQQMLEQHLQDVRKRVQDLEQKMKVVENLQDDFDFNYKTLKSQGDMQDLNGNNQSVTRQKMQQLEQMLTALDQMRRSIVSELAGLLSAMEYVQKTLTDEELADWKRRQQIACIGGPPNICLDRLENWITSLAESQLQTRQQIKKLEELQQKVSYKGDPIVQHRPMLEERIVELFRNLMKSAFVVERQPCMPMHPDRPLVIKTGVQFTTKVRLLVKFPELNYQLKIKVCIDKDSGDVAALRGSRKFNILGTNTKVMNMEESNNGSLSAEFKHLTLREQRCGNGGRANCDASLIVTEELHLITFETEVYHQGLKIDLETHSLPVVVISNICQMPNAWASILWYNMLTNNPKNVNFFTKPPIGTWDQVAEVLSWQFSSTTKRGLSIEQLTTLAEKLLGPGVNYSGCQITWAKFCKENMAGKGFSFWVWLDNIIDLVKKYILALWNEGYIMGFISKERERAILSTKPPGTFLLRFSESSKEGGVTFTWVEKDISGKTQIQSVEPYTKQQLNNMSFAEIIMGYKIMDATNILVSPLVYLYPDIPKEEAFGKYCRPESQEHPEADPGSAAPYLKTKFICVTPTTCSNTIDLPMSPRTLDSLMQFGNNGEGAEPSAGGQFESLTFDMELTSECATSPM
UniProt P42227: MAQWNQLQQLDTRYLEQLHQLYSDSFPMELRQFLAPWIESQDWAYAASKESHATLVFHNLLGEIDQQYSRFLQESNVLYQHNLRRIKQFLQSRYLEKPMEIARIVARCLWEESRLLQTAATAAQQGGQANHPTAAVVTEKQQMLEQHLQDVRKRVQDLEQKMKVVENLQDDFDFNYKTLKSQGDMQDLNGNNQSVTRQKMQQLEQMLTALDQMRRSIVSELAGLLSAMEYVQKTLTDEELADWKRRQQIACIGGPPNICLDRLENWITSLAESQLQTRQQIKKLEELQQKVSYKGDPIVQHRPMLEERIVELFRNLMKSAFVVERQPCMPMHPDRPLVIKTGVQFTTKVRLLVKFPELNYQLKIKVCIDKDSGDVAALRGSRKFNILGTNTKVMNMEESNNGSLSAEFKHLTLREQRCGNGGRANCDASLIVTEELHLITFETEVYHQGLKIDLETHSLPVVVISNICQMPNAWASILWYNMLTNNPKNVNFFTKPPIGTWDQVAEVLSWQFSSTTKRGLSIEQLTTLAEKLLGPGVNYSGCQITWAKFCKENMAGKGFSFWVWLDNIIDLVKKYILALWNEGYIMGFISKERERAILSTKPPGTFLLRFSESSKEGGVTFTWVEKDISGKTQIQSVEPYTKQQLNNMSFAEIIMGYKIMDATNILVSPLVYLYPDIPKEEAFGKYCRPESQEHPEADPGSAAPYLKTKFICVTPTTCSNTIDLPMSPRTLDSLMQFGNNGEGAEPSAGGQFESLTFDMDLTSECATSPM
UniProt P27361: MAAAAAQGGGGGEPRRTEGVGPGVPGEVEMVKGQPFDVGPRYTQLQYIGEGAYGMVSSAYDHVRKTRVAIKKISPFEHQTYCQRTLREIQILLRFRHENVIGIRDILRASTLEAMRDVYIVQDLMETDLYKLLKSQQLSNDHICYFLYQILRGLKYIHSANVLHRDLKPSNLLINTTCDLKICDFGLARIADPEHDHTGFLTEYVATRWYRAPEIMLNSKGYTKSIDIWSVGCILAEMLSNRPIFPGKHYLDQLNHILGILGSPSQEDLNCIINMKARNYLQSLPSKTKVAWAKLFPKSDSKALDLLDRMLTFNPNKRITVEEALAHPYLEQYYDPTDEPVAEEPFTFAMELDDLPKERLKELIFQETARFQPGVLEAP
UniProt P63085: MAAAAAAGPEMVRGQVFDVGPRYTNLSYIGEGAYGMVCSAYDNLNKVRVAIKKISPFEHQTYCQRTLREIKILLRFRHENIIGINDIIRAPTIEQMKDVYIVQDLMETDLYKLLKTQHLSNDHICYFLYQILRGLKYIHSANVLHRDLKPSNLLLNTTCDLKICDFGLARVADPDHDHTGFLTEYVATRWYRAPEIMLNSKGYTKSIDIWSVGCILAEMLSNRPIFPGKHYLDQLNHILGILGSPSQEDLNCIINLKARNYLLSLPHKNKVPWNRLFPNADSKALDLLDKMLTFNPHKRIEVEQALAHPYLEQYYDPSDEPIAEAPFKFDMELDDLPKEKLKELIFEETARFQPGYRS

Experiment [3] deals with DUSP3, endogenous in mouse lung tumour (mouse (endogenous in lung tumour of C57BL/6J mice)) (UniProt Q9D7X3). In words: co-IP; extracts of urethane-induced lung tumours of TC2N engineered mice (with or without TC2N deletion), IP with anti-DUSP3 antibody, Western blot with the indicated antibodies; normal IgG as negative control.

No constants are given. Whether binding was seen depends on the method and setting. In cells and extracts the contact can be indirect. Some entries that bind do so weakly or less than the wild type.

Take “FAK1, endogenous in human lung cancer cells (from UniProt Q05397 1-1052) (enzyme)”: the figures for the binding result in experiment [1] and in experiment [2] were “no binding” and “binds”, respectively.

For the substance “EGFR, endogenous in mouse lung tumour (from UniProt Q01279 25-1210) (receptor)”, the binding entry in experiment [3] is recorded as “binds”.

For the substance “ERK2, endogenous in human lung cancer cells (from UniProt P28482 1-360) (enzyme)”, the binding result is “no binding” in experiment [1] and “binds” in experiment [2].

For “FAK1, endogenous in mouse lung tumour (from UniProt P34152 1-1052) (enzyme)”, the binding entry in experiment [3] is “binds”.

“dual specificity protein phosphatase 3 (DUSP3), endogenous in human lung cancer cells (from UniProt P51452 1-185) (enzyme)”: the binding entry in experiment [1] was “binds”.

With “ERK1, endogenous in mouse lung tumour (from UniProt Q63844 1-380) (enzyme)”, the binding result in experiment [3] is “binds”.

As to “STAT3, endogenous in human lung cancer cells (from UniProt P40763 1-770)”, the binding entry is given as “no binding” in experiment [1] and “binds” in experiment [2].

In the case of “EGFR, endogenous in human lung cancer cells (from UniProt P00533 25-1210) (receptor)”, the binding entry in experiment [1] is “no binding”; in experiment [2], “binds”.

For the substance “STAT3, endogenous in mouse lung tumour (from UniProt P42227 1-770)”, the binding result in experiment [3] is “binds”.

With “Flag-TC2N (Tandem C2 domains, nuclear), full-length (from UniProt Q8N9U0 1-490)”, the binding result in experiment [2] is “binds”.

For the substance “ERK1, endogenous in human lung cancer cells (from UniProt P27361 1-379) (enzyme)”, the values for the binding entry in experiment [1] and in experiment [2] were “no binding” and “binds”, respectively.

For “ERK2, endogenous in mouse lung tumour (from UniProt P63085 1-358) (enzyme)”, in experiment [3], the binding result is reported as “binds”.

The values are drawn from paper PMC11758731.
